Test results: the supplement of paper PMC12217912
This is one part of the list. The full chains were built here from the parent and the listed change. Inactive controls read about 0.05.

B1: TEV protease; numbered along this chain (parent)
chain: MGESLFKGPRDYNPISSSICHLTNESDGHTTSLYGIGFGPFIITNKHLFRRNNGTLVVQSLHGVFKVKDTTTLQQHLVDGRDMIIIRMPKDFPPFPQKLKFREPQREERICLVTTNFQTKSMSSMVSDTSCTFPSGDGIFWKHWIQTKDGQCGSPLVSTRDGFIVGIHSASNFTNTNNYFTSVPKNFMELLTNQEAQQWVSGWRLNADSVLWGGHKVFMVKPEEPFQPVKEATQL

Variants of: B1
Assay: raw area under fraction-flipped curve 0-4 h after induction (AUC4h, not background-subtracted), DNA-recorder readout of cleavage of the substrate (dimensionless); higher = more cleavage of the substrate by the protease variant
Conditions: temperature: 34 °C; time window: 0-4 h after rhamnose induction
Experimental: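 In vivo DNA recorder in E. coli TOP10(DE3) ΔrhaA at 34 °C. Each TEVp single-site mutant (parent TEVp 0) is paired with a single-site variant of the 7-mer TEVs (canonical ENLYFQ|S). The substrate sits between flexible linkers in a Bxb1-sfGFP-TEVs-SsrA fusion, so cleavage stabilises Bxb1 and speeds flipping of a recombination array, read by NGS. The value is the raw area under the fraction-flipped curve over 0-4 h after rhamnose induction (AUC4h), with ≥20 reads per time point. It is not background-subtracted; inactive controls average about 0.047.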
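Also: Bxb1 expression induced with 0.2% (w/v) L-rhamnose at OD600 near 0.5, cultures sampled hourly, flipped fraction per protease–substrate barcode pair counted by paired-end Illumina sequencing.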

Variant | area with substrate ENLDFQS | area with substrate ENLFFQS | area with substrate ENLLFQS | area with substrate ENLPFQS | area with substrate ENLSFQS | area with substrate ENLCFQS | area with substrate ENLEFQS | area with substrate ENLHFQS | area with substrate ENLKFQS | area with substrate ENLNFQS | area with substrate ENLQFQS | area with substrate ENLRFQS | area with substrate ENLVFQS | area with substrate ENLWFQS | area with substrate ENLGFQS | area with substrate ENLMFQS | area with substrate ENLIFQS
MGESLFKGPRDYNPISSSICHLTNESDGHTTSLYGIGDGPFIITNKHLFRRNNGTLVVQSLHGVFKVKDTTTLQQHLVDGRDMIIIRMPKDFPPFPQKLKFREPQREERICLVTTNFQTKSMSSMVSDTSCTFPSGDGIFWKHWIQTKDGQCGSPLVSTRDGFIVGIHSASNFTNTNNYFTSVPKNFMELLTNQEAQQWVSGWRLNADSVLWGGHKVFMVKPEEPFQPVKEATQL [F38D] | 0.0474 | 0.0597 | 0.0348 | 0.0229 | 0.0329 |  |  |  |  |  |  |  |  |  |  |  | 
MGESLFKGPRDYNPISSSICHLTNESDGHTTSLYGIGFGPFIITNKHLFRRNNGTLVVQSLHGVFKVKDTTTLQQHLVDGRDMIIIRMPKDFPPFPQKLKFREPQREERICLVTTNFQTKSMSSMVSDTSCTFPSGDGIFWKHWIQTKDGQCGSPLVSTRDGFIVGIHSASNFTNTNNYFTSVPKNFMELLTNQEAQQWVSGWRLNADSVLWGGHKVFMVKPEEPFQPVKEATQA [L235A] | 0.077 | 0.0725 | 0.0671 | 0.0641 | 0.0403 | 0.0761 | 0.0682 | 0.072 | 0.0833 | 0.0671 | 0.0672 | 0.0788 | 0.0714 | 0.0596 |  |  | 
MGESLFKGPRDYNPISSSICHLTNESDGHTTSLYGIGFGPFIITNKHLFRRNNGTLVVQSLHGVFKVKDTTTLQQHLVDGRDMIIIRMPKDFPPFPQKLKFREPQREERICLVTTNFQTKSMSSMVSDTSCTFPSGDGIFWKHWIQTKDGQCGSPLVSTRDGFIVGIHSASNFTNTNNYFTSVPKNFMELLTNQEAQQWVSGWRLNADSVLWGGHKVFMVKPEEPFQPVKEATQN [L235N] | 0.0943 | 0.0951 |  | 0.0467 |  | 0.0726 | 0.0718 |  | 0.0595 | 0.0637 |  |  | 0.0437 | 0.0698 |  |  | 
MGESLFKGPRDYNPISSSICHLTNESDGHTHSLYGIGFGPFIITNKHLFRRNNGTLVVQSLHGVFKVKDTTTLQQHLVDGRDMIIIRMPKDFPPFPQKLKFREPQREERICLVTTNFQTKSMSSMVSDTSCTFPSGDGIFWKHWIQTKDGQCGSPLVSTRDGFIVGIHSASNFTNTNNYFTSVPKNFMELLTNQEAQQWVSGWRLNADSVLWGGHKVFMVKPEEPFQPVKEATQL [T31H] | 0.0566 | 0.0784 | 0.0703 | 0.0454 | 0.0436 |  | 0.0602 |  | 0.0786 | 0.0579 | 0.0613 |  | 0.0778 | 0.0675 | 0.0702 | 0.0562 | 
MGESLFKGPRDYNPISSSICHLTNESDGHTTSEYGIGFGPFIITNKHLFRRNNGTLVVQSLHGVFKVKDTTTLQQHLVDGRDMIIIRMPKDFPPFPQKLKFREPQREERICLVTTNFQTKSMSSMVSDTSCTFPSGDGIFWKHWIQTKDGQCGSPLVSTRDGFIVGIHSASNFTNTNNYFTSVPKNFMELLTNQEAQQWVSGWRLNADSVLWGGHKVFMVKPEEPFQPVKEATQL [L33E] | 0.0606 | 0.0559 | 0.0822 | 0.0631 | 0.0644 |  | 0.0623 | 0.0574 | 0.0778 | 0.0618 |  | 0.0637 | 0.0542 | 0.064 |  |  | 
MGESLFKGPRDYNPISSSICHLTNESDGHTTSLWGIGFGPFIITNKHLFRRNNGTLVVQSLHGVFKVKDTTTLQQHLVDGRDMIIIRMPKDFPPFPQKLKFREPQREERICLVTTNFQTKSMSSMVSDTSCTFPSGDGIFWKHWIQTKDGQCGSPLVSTRDGFIVGIHSASNFTNTNNYFTSVPKNFMELLTNQEAQQWVSGWRLNADSVLWGGHKVFMVKPEEPFQPVKEATQL [Y34W] | 0.0725 |  | 0.0594 |  |  |  |  |  |  | 0.0626 |  | 0.0681 |  |  |  |  | 0.0826
MGESLFKGPRDYNPISSSICHLTNESDGHTTSLYGIGFGPFIITNKHLFRRNNFTLVVQSLHGVFKVKDTTTLQQHLVDGRDMIIIRMPKDFPPFPQKLKFREPQREERICLVTTNFQTKSMSSMVSDTSCTFPSGDGIFWKHWIQTKDGQCGSPLVSTRDGFIVGIHSASNFTNTNNYFTSVPKNFMELLTNQEAQQWVSGWRLNADSVLWGGHKVFMVKPEEPFQPVKEATQL [G54F] | 0.0606 | 0.0612 |  |  | 0.0516 |  | 0.0571 | 0.0554 | 0.0682 | 0.0554 |  | 0.0747 |  |  |  |  | 0.0732
MGESLFKGPRDYNPISSSICHLTNESDGHTTSLYGIGFGPFIITNKHLFRGNNGTLVVQSLHGVFKVKDTTTLQQHLVDGRDMIIIRMPKDFPPFPQKLKFREPQREERICLVTTNFQTKSMSSMVSDTSCTFPSGDGIFWKHWIQTKDGQCGSPLVSTRDGFIVGIHSASNFTNTNNYFTSVPKNFMELLTNQEAQQWVSGWRLNADSVLWGGHKVFMVKPEEPFQPVKEATQL [R51G] | 0.069 |  | 0.0936 |  | 0.0876 |  | 0.0608 | 0.0613 |  | 0.0691 | 0.0671 | 0.0636 |  | 0.0743 |  |  | 0.103
MGESLFKGPRDYNPISSSICHLTNESDGHTTSLYGIGFGPFIITNKHLFRRNNGTLVVQSLHGVFKVKDTTTLQQHLVDGRDMIIIRMPKDFPPFPQKLKFREPQREERICLVTTNFQTKSMSSMVSDTSCTFPSGDGIFWKHWIQTKDGQCGSPLVSTRDGFIVGIHSASNFTNTNNYFTSVPKNFMELLTNQEAQQWVSGWRLNADSVLWGGHKVFMVKPEEPFQPVKEATDL [Q234D] | 0.0668 | 0.104 | 0.0688 | 0.0596 | 0.0675 | 0.0772 | 0.058 |  | 0.0685 | 0.0589 | 0.064 | 0.0957 |  |  |  |  | 0.118
MGESLFKGPRDYNPISSSICHLTNESDGHTTSLYCIGFGPFIITNKHLFRRNNGTLVVQSLHGVFKVKDTTTLQQHLVDGRDMIIIRMPKDFPPFPQKLKFREPQREERICLVTTNFQTKSMSSMVSDTSCTFPSGDGIFWKHWIQTKDGQCGSPLVSTRDGFIVGIHSASNFTNTNNYFTSVPKNFMELLTNQEAQQWVSGWRLNADSVLWGGHKVFMVKPEEPFQPVKEATQL [G35C] | 0.0422 |  |  | 0.0616 |  |  | 0.0685 | 0.0574 |  | 0.0521 |  |  |  | 0.0586 |  |  | 0.0663
